From US4086345A, “Product and method for combatting swine dysentery” (Istituto Chemioterapico Italiano, priority 1977, dated 1978)

Experiments:
[1] = test system: swine dysentery; assay: Swine dysentery, feeding in swine rations; settings: for Symptoms of swine dysentery, prophylaxis: 200 g/ton in swine rations, area with previous outbreak; for Symptoms and spread of swine dysentery, treatment of diseased herd: 400 g/ton in swine rations
[2] = test system: five strains of Vibrio cholerae; assay: Effect on five strains of Vibrio cholerae; settings: 10 μg/ml, after 48 hours
[3] = Toxicity (summary in words); settings: same manner as described for CO-1 in Example 1

Compound | Symptoms of swine dysentery, prophylaxis [1] | Symptoms and spread of swine dysentery, treatment of diseased herd [1] | Growth of the five Vibrio cholerae strains [2] | Toxicity relative to CO-1 [3]
Nc1nccc(C=Cc2c[n+]([O-])c3ccccc3[n+]2[O-])n1 [CO-1, 2-[2-(2-amino-4-pyrimidinyl)ethenyl]-quinoxaline 1,4-dioxide] | The members of the herd remain free from symptoms during the duration of their stay | The spread of the disease is halted and the diseased members become free from symptoms |  | 
Cc1cc(C=Cc2c[n+]([O-])c3ccccc3[n+]2[O-])nc(N)n1 [CO-2, 2-[2-(2-amino-6-methyl-4-pyrimidinyl)ethenyl]-quinoxaline 1,4-dioxide] | The members of the herd remain free from symptoms during the duration of their stay | The spread of the disease is halted and the diseased members become free from symptoms | no growth after 48 hours of 3 of the organisms | Comparable results are obtained
